# Test results reported in the supplement of paper PMC11417369.
# The other results are listed elsewhere or left out.
# System: PfHDP1 homeodomain (GST-tagged)
# Assay: gcPBM binding intensity (ln(normalized median fluorescence intensity)); higher = stronger DNA binding
# Procedure, shortened: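 Using an Agilent 4 × 180k array, primer-extended double-stranded 36-bp intergenic genomic probes and negative controls were exposed for 1 h to GST-fused P. falciparum DNA-binding domains expressed in E. coli. Binding was carried out in 1× PBS with 1% milk, 0.2 mg/ml BSA, 0.5% salmon testes DNA and 0.03% Triton X-100, and protein was detected with Alexa488 anti-GST antibody and a 488 nm scan. Binding intensity is the highest Masliner-normalised natural-log median intensity across replicate spots of either probe orientation.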
row,Sequence,gcPBM binding intensity (ln)
1,CTTTATATATTTTATTGTACTTAAAAAAAAAAAAAA [XGTACX_site2134],6.46
2,AAAATATTTATTCCTAGTACTTACCATTATATATAT [XGTACX_site363],6.84
3,AAAAAAAAATGAAAAGAAAAAAAAAGAAAAAAGGGA [CACACA_negctrl_site287],6.32
4,ATTATTTATATTTGGAGTACTTATAATATTTTTATA [XGTACX_site1289],6.67
5,AAAAAAAAAAAAAAAACACACAAACGCTTTTTTTTT [CACACA_site4545],6.73
6,GGATAAGAGGCATATACACACAATTTAAAAAAATAA [CACACA_site4657],6.63
7,ATTTTTTTGTTAATTTGTACATAAAATTTTATTTTA [XGTACX_site7007],6.67
8,ATATTTATTTTATAAAGTACTAAAAAATATATTATA [XGTACX_site8522],6.31
9,ATGTCATAAAAACATATACACACTTGAAATATAAAA [CACACA_site2329],6.55
10,CATTCCTATTATTATACACACAAATTAAGAATTCAA [CACACA_site787],6.81
11,TATAATATATTCATGTGTACATATATTTCGAACATA [XGTACX_site1754],6.71
12,ATAAATATTGCGTGCACACACATAATATTTATATAT [CACACA_site7136],10.3
13,CGAAAAATATGTATGAGTACTTATATTTAAACTATA [XGTACX_site1911],6.26
14,ATATGTACAAATTATACACACATGTACAATTATATA [CACACA_site1253],6.91
15,AAAAAAAAAAAAGAAAAATATATATATAAATAAATA [GTGCAC_negctrl_site569],6.34
16,ATGTCACAATTTTTCACACACAAAATTTATATACAT [CACACA_site2030],6.9
17,TATGTTTCTATATATACATGCAAGAAGAAATGTACT [TGCATGCA_site891],6.65
18,TCTTAAATTATGATAAAATATAATAAATAAATAAAT [CACACA_negctrl_site1520],6.11
19,TTGTTTTATACATAGTGTACATATAAAAATTTTTTT [XGTACX_site7549],6.63

row,Sequence,gcPBM binding intensity (ln)
1,ATATATATTATAATCTGTACATAAATATATAATAAA [XGTACX_site5425],6.3
2,ATATATAAATATGAAACACACATTCTATTTAATTCG [CACACA_site1450],6.19
3,CAGATAAATAAACACACACACACATATATATATATA [CACACA_site9311],9.25
4,ATTTTCCCTAGAATATGTACACATAGTAAATATTAT [XGTACX_site7499],6.34
5,AAATAAAGAAATGCAAGTACATACTAAACTAATCCA [XGTACX_site1209],6.57
6,TATGTTTTTGAATGAGTGCATTAAAATAAAACATTT,8.9
7,TTCTTGTATATTCATAGTACATATAATGTCGTGTTA [XGTACX_site8991],6.58
8,TAATAAGGAATTTATAGTACATATTCATATGTTTTA [XGTACX_site2331],5.79
9,ATAATATAAATATACACACACACATATATATATATA [CACACA_site2905],9.28
10,ATAAAAATTTATATATGTACTTAATTTTTAATTTTT [XGTACX_site7482],5.98
11,GAATATTAATTCAAGTGTACAAATATATATATAATT [XGTACX_site5103],6.78
12,CAAAAGGATAGGCACACACACACACCGATATATATA [CACACA_site8685],6.84
13,GTTAATATTTTTGGGGGTACTTAAAAAAAAAAAAAA [XGTACX_site1477],7.2
14,AATTTAAAAAATAATTGTACAAAAAAAAAAAATCAG [XGTACX_site4576],6.65
15,TTACATACAATTGGTGTGCACATATATATATATATA,10.3
16,TAATTATTTGCCCTTACTCTGAACATTCGGAATTTA [CACACA_negctrl_site1278],6.49
17,TTTTAATATTAAGATGTCTTTTACGTTTATTTTGTA [CACACA_negctrl_site765],6.54
18,ATTTACGCGCTTATTACACACACATACAAATAAGGA [CACACA_site9157],7.07
19,TTCTTTTTAAATTACACACACATATAAATATGTATA [CACACA_site7618],7.15

row,Sequence,gcPBM binding intensity (ln)
1,ATCTGCATATATATATGTACATATTTTAGAATGCAC [XGTACX_site708],6.92
2,TTTTTATAAAATTTTATGAGCTCGGAAAAAATAAAC [GTGCAC_negctrl_site637],7.35
3,TTTTTTTTATTTTGTTGTACGCTTATTTGTATATAT [XGTACX_site7325],6.8
4,TTTATGTGTTATAAATGTACATAATATAATTCGTAT [XGTACX_site3845],6.39
5,TTATCTATAAATACGAGTACGCAAAATCATATAATA [XGTACX_site2447],6.7
6,CCACAAGTATATAGTAGTACAATTTTTTTCTCTTTA [XGTACX_site4403],6.12
7,ATATAAGGATAACCTAGTACATATTATATGAAACAA [XGTACX_site8459],6.57
8,AAAATAAATAAATAAATATATATATATATATATATA [TGCATGCA_negctrl_site558],9.33
9,CAATTAAAATGCAACGGTACACATAAAAAAAATAAA [XGTACX_site6216],7.26
10,AAGGGGAAAAAAAAAAGTACACAAACATAGGATAAT [XGTACX_site377],6.82
11,TACGGTAAATAGTGTTGTACGATACAATTGTTTTCT [XGTACX_site8118],6.21
12,TGTATTATATGTAAATGTACATTTAATATTTTATAT [XGTACX_site4461],6.7
13,TATATATAATATATATATATGGAAATTCTTTTAAAT [XGTACX_negctrl_site50],6.68
14,GTATGAAATTATAATAGTACATATAAATAAAAAAAA [XGTACX_site8955],6.59
15,GTAGGCATTAAAAAATGTACAAAATATTATGAATTG [XGTACX_site1615],6.32
16,ACAATATCTAGATACACACACATATCTCTCAATCTA [CACACA_site656],6.63
17,TATAATATTCTATATGCATGTACACCATTCTTTATT [TGCATGCA_site688],7.24
18,TTTTTTTTTATTTGTTGTACGAGGTTTTAAAATTTT [XGTACX_site106],6.64
19,TAATAAAACATATATACACACATTATATATACATAT [CACACA_site8495],6.62
